Measurements published in ChEMBL document CHEMBL4888484, “Replenishing the malaria drug discovery pipeline: Screening and hit evaluation of the MMV Hit Generation Library 1 (HGL1) against asexual blood stage Plasmodium falciparum ,using a nano luciferase reporter read-out” (2022).
Screen size: about 150,000 compounds; about 540 (0.36%) showed an effect of 50% or more. This is one part of the list.

Test system: Plasmodium falciparum
Test: Primary screen in NF54 nanoGlo assay, in single point, at 2uM, 72h; a lower Z score goes with more inhibition
Format: functional, Erythrocyte
Conditions: timepoint 72 hour

SMILES	% Inhibition [%]	Z score
O=S1(=O)CC(NCc2ccccc2)C(NCc2ccccc2)C1 (centres undefined)	0	0.02
CN(C)c1cnn(CCc2ccc(F)cc2)c(=O)c1	-13	1.34
Cc1nc(N(C)Cc2cnn(C)c2)ccc1C#N	-14	1.88
CC[C@H](NC(=O)Cn1nc(C)cc1N)c1ncccc1C	-6	1.06
Cc1cnc(C(=O)N2CCOc3ccc(CN4CCCCCC4)cc3C2)cn1	-15	1.57
NC(=O)N1CCC[C@H]1C(=O)NCC1(c2cccc(Cl)c2F)CCCC1	0	0.04
COCCN1CCCCC[C@H](O)c2cc(C(=O)N3CCN(c4ccccn4)CC3)ccc21	2	-0.24
CCC(=O)N1CCC[C@](c2nnnn2C2CCCC2)(N(CC)Cc2ccccc2)C1	-4	0.59
CC(C)c1noc(CN(C)C[C@@H]2CC=CCC2)n1	-2	0.42
Cn1ncnc1NC(=O)c1ccc(-c2cccc(Br)c2)n1C	-2	0.47
O=C(O)C1CCCCC1C(=O)N(Cc1ccccc1)Cc1ccccc1 (centres undefined)	-12	2.28
Cc1cc(CN(C)CCc2nccn2C)ccn1	6	-0.63
COc1ccc(CN2C(=O)[C@H]3CCCC3=Nc3cc(C)c(C)cc32)cc1F	2	-0.28
COC[C@H]1CCCN1C(=O)c1nc(C)n2c1CCCC2	-8	1.09
CCN(C(=O)CCc1nccs1)c1cc(C)cc(C)c1	3	-0.53
Cc1cc([C@@H](O)CCNC(=O)C(=O)NCc2ccc(F)cc2)c(C)o1	-14	1.83
CN(CCNC(=O)[C@@H]1C[C@H](Oc2ccccc2)CN1C1CCOCC1)C1CCCCC1	-16	2.14
Nc1ccnc(N2CCC(Oc3ccc4c(c3)CCC4)(C(=O)O)CC2)n1	-18	1.69
O=S(=O)(c1cc(-c2nc(-c3ccc(Cl)cc3)no2)cs1)N1CCc2ccccc2C1	-7	0.83
O=C(CC1CCCC1)NCCCc1cnc2ncnn2c1	7	-1.28
O=C(NCCc1ccc[nH]1)c1cc(C(F)F)ncn1	-3	0.53
O=c1c2c([nH]c3c(-c4cccc5ccccc45)c(Cc4ccccc4)nn13)CCC2	-6	1.04

SMILES	% Inhibition [%]	Z score
Cc1noc([C@H]2CCN(c3nnc(C(F)(F)F)s3)C2)n1	0	-0.01
COc1ccc(C(=O)N2CCN(c3nc(CN4CCN(c5ccc(C)cc5)CC4)cc(=O)[nH]3)CC2)cc1	-6	1.17
O=C(COc1cccc(F)c1)N1CCN(C(=O)c2c[nH]c(=O)[nH]2)CC1	-2	0.21
CCC1CCC(C(=O)NCc2snc(OC)c2Br)O1 (centres undefined)	-4	0.6
CCOC(=O)c1csc(CN2CCC(C(C)(C)C)C(O)C2)n1 (centres undefined)	-2	0.27
CC(C)(C)NC(=O)N(Cc1ccc(F)cc1)Cc1ccccc1OS(=O)(=O)c1ccc(F)cc1	-13	1.23
CCc1nn(C)c(Cl)c1CN1CCC2(CC1)[C@H](O)C[C@@H]2O	-3	0.49
Nc1ccnc(N2CCN(Cc3cc(C4CC4)n[nH]3)C[C@H](O)C2)n1	-3	0.69
Cn1cc(CCC(=O)N2CCC[C@H](C(=O)c3ccc(C(C)(C)C)cc3)C2)cn1	6	-0.74
CN1CCC(CN(CCc2ccccc2)C(=O)Cc2cccs2)CC1	-7	0.91
Cc1ccc(C)c(N2CCN(C(=O)C3CCC3)[C@@H](C)C2=O)c1	-3	0.31
CS(=O)(=O)c1ccc(-c2noc(-c3cccc4[nH]ncc34)n2)cc1	0	-0.07
Cc1ccc(N2C[C@]3(c4ccccc4)C[C@@H](c4ccccc4)ON3[C@H]2c2ccc3c(c2)OCO3)cc1	-4	0.43
Cc1cccc(OCC(=O)N2CCC(CN3CCCC3)CC2)c1	-4	0.73
Cc1ncccc1OC1(C(=O)O)CCN(c2noc(C(C)C)n2)CC1	-10	2.02
CCc1nc(C(=O)N2CCN(c3ccccc3Cl)CC2)c[nH]1	-12	2.26
C=CCNC(=O)COc1ccc(Br)cc1	2	-0.32
CC1CC(NCCc2cc(F)cc3c2OCOC3)CN1C1CC1 (centres undefined)	-5	0.45
Cc1ccc(C)c(S(=O)(=O)Nc2cc(-c3ccsc3)no2)c1	-25	2.46
Cc1cn2c(n1)CC[C@H](NS(=O)(=O)c1cncc(F)c1)C2	-6	0.65
Cc1nc(C)c(C(=O)OCC(=O)N(C)CC(=O)Nc2ccc(F)cc2)s1	-7	1.31
O=C(c1ccc(C(F)(F)F)n(Cc2ccc(Cl)cc2)c1=O)N1CCOCC1	1	-0.18

SMILES	% Inhibition [%]	Z score
CC1Nc2ccnn2C(C)C1CCC(=O)NCc1ccc(F)cc1 (centres undefined)	2	-0.24
O=C(OC1CCCCC1)c1nsc(Cl)c1Cl	3	-0.41
Cc1cccc(N2CCC[C@H](c3nc(C)cs3)C2)n1	-13	1.48
CN(CCc1nc2ccccc2[nH]1)S(=O)(=O)[C@H]1CCS(=O)(=O)C1	-13	1.22
COc1cccc(N2CCN(C(=O)c3c(C)n(CCc4ccccc4OC)c(C)cc3=O)CC2)c1	-2	0.39
CC[C@H]1CCCCN1S(=O)(=O)c1ccc2c(c1)N(Cc1noc(C)n1)C(=O)CO2	-10	1.81
CN(Cc1cscn1)C(=O)c1snnc1C(C)(C)C	6	-0.61
O=C(c1ncccc1O)N1CC[C@@]2(CCCN(C3CCCCC3)C2=O)C1	5	-0.75
O=C(Cn1ncnn1)N1CCC[C@H](c2cccc(C(F)(F)F)c2)C1	-12	1.63
CNC(=O)c1cc(Br)ccc1Cl	2	-0.26
O=C(CNc1cc(S(=O)(=O)N2CCOCC2)ccc1Oc1ccc(F)cc1)N1CCNC1=O	-10	1.38
c1ccc(CNC(=NC2CC2)NC2CCCC2)cc1	-6	1.08
CCOCCCNC(=O)[C@H]1CCN(c2cnn(Cc3ccccc3)c(=O)c2)C1	-12	1.71
CN1N=C(CC(=O)NCC(C)(C)Cc2cccc(Cl)c2)CC1=O	-5	0.53
CC[C@H](C)NC(=O)CCN(CCc1ccccc1)c1nc(-c2ccc(F)cc2)nc2ccccc12	-8	1.36
O=C(c1cscn1)N1CCN(c2ncccn2)CC1	-7	0.81
OC1(Cc2nc(-c3ccc(Br)o3)no2)CCCC1	4	-0.69
c1ccc(Oc2cccc(CN3CCN(c4ccccc4)CC3)c2)cc1	-13	2.14
COC(=O)c1cc(C2CC2)nc2c1c(=O)n(Cc1cc(C)ccc1C)c(=O)n2-c1ccccc1	5	-0.59
CN(Cc1ccc2cc[nH]c2c1)C(=O)[C@H]1CCc2n[nH]c(=O)n2C1	-23	4.57
CCc1ccc(CNC(=O)N(C)Cc2nnc[nH]2)s1	31	-3.47
COc1cc(Br)c(F)cc1S(=O)(=O)Nc1onc(C2CCCCC2)c1C	-26	3.07

SMILES	% Inhibition [%]	Z score
CCCCc1noc(Cn2cnc3c(cnn3C)c2=O)n1	-12	1.12
Cc1ccc([C@@H]2COCCN2Cc2cn3ccccc3c2C#N)o1	-2	0.22
COc1ccccc1Nc1c2c(nc3ccc(NC(=O)c4ccc5c(c4)OCO5)cc13)CCCC2	2	-0.26
COc1ccc(NC(=O)c2ccc3nn(CC(=O)NC4CCCC4)c(=O)n3c2)cc1	-18	1.63
COC[C@@H](c1ccnn1C)n1cnc2c(F)cccc2c1=O	3	-0.54
O=C(O)[C@@H]1C[C@@H](O)CN1c1nc2ccc(Cl)cc2s1	-9	1.35
Cc1cccc(NC(c2ccc(F)cc2)C2CCCC2=O)c1 (centres undefined)	1	-0.26
COc1cccc(C(=O)N2CCOC[C@H](OC)C2)c1	6	-0.74
CC(=O)c1sc(NC(=O)[C@H](C)n2nc(C3CC3)ccc2=O)nc1C	8	-1.03
CCN(Cc1ccnc(OC)c1)[C@H]1CCS(=O)(=O)C1	-11	2.11
Nc1c(C(=O)Nc2cccc(F)c2)sc(=S)n1C[C@H]1CCCO1	-4	0.56
O=C(O)c1ccc(CNC(=O)C2(c3c(F)cccc3F)CCC2)o1	-12	1.48
COc1ccc(CN2CCN(c3nn4cc(C)nc4s3)CC2)cc1	-10	0.87
COc1cccc(CNC(=O)Cn2c(C)c(Cc3ccccc3)c(=O)n3nc(-c4ccccc4)nc23)c1	2	-0.22
C[C@H]1CNC(=O)CCN1C(=O)Cc1cccnc1	-5	0.71
CCN1CCn2cc(CNC(=O)c3noc(C)c3COc3ccccc3)nc2C1=O	-1	0.18
COc1ccc(NC(=O)[C@@H](C)C2CCOCC2)cc1	37	-5.31
CCc1ncc(S(=O)(=O)N2CCCc3ccc(C)c(F)c32)s1	-19	3.66
O=C1C[C@H](Nc2ccc3c(c2)OCO3)C(=O)N1CCc1ccccc1F	-4	0.63
CC(C)Cn1nccc1C(=O)Nc1cc(Cl)ccc1-c1nnn[nH]1	-6	0.74
CCc1ncnc(N2CCC(CCCn3ccnc3)CC2)c1F	4	-0.47
